# According to the supplement of paper PMC10338343:
# ± gives the standard deviation. The list shows a part of the results, in another mix than the full data.
# System: MIWI (PIWIL1) piRISC loaded with L1MC piRNA (30 nt)
# Assay: pre-steady-state target cleavage rate (min^-1); MIWI and MILI are mouse PIWI proteins and EfPiwi is from a freshwater sponge; tags in brackets are library labels; higher = faster piRNA-guided slicing of the target
# Conditions: guide: L1MC piRNA 5'p-UAACUAAAUACUAUGCAAGCUGUAGGUCCU; auxiliary factor: 500 nM mouse GTSF1
# Method in brief: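 Cleave-'n-Seq used a transcribed, DNA-blocked target RNA library at 0.1 nM and active affinity-purified piRISC with one synthetic guide at 1 nM, with or without 500 nM GTSF1 partner protein, in HEPES–potassium acetate buffer at 33 °C for 0–8 or 0–960 min. Uncleaved targets were sequenced and normalised to depth and to weakly complementary targets, and three trials were pooled with k3 capped at 0.0001 min^-1. The pre-steady-state cleavage rate was estimated by a burst-and-steady-state fit.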
row,Sequence,pre-steady-state target cleavage rate
1,UCCUGCUACAGCUUGCAUAGAUAUUUAGUUA,0.00924 ± 0.0054
2,UCCUGGUACAGCUUCCAUAGUAUUUAGUAA,0.0195 ± 0.01
3,AGGACCUACAGCUUGCAUAGUAUAAUCAAA,0.414 ± 0.073
4,UCGACCUACAGCUUCGAUAGUAUUUACAAA,0.0356 ± 0.013
5,UCCUCCUACAGCUUGCUUAGUAUUUAGAAA,0.226 ± 0.035
6,UCCUCCUUCAGCUUGCAUAGUAUUUUCAAA,0.294 ± 0.035
7,UCCUGCUACAGCUUGGAUAGUAUUUAGAAA,0.0981 ± 0.022
8,UCCUGGAACAGCUUGCAUACUAUUUUCAAA,0.0459 ± 0.012
9,UCCUGGAUGACCAUGCAUAGUAUUUAGUUA,0.00692 ± 0.0045
10,UCCUCCUACAGCUUGCAUAGUAUAAACAAA,0.329 ± 0.056
11,UCCUGGAACAGCUUGCUAAGUAUUUAGAAA,0.00993 ± 0.0048
12,UCCACCUACAGGAUGCAUAGUAUUUACAAA,0.316 ± 0.049
13,UCCUCCUACAGGAAGCAUAGUAUUUUCAAA,0.0519 ± 0.017
14,UCCACCUACAGCUACCAUAGUAUUUAGAAA,0.0452 ± 0.014
